# From the supplement of paper PMC8728848
# The list shows a part of the results.
# B1: Epa1-NP-mutant-E227A (Candida glabrata), Q6VBJ0 (protein)
# chain: MILNPALFLNKCVCIYTTLILLLLTNGGYATSSNDISLASKDPTTFPLGCSPDITTPKKGLSMELYSYDFRKKGSYPCWDAAYLDPNYPRTGYKSHRLLAKVDGVTGNINFYYHATKGCTPQLGHLPASYNYPKPLTMTNFTMLLYGYFRPKVTGFHTFTISADDLLFVNFGAGNAFDCCRRDSSADHFGNYQAYAIWGSKTAKDELTVHLDAGVYYPIRLFYNNRAYDGALSFTFKTESNENTVSDFSEYFFSLDDTEEGCPGLISYDSSCASVKTSKIIGIDYHTETPNENLVPITKTIYHLGIPCTGTTTTPLCGSGFYDPLANKCVTINTSSTSSVTKTTSHTTSKEVSFHSSISSQKTLIPKSIPSPYGPIKSQSIPTEMETSSEISSSEYAFSDVISTPSHSPYTKKHSSLNSSSYTSTVIHSLTSYSISQGIFSTSLSEQNITSKSSTDKFSTATSMSNNITQSSIIISQFSTNNENYTTTSMHTSSDKISTETLNNSISTTTSILFSNSSTILKNNTTIISSDKDTHYHPVNPTIVCSTNKTEIICASITQPSISNSNNHWSSSVLKFNSTTVRSTLPSSAGSNETSINVPFSSSTESNTSTSSTSTSNSKMVRSTLPSSAGSNETSISVPFSSSTESNTSTSSTSTSNSKMVRSTLPSSAGSNETSINVPFSSSTESNTSTSSTSTSNSKTVRSTPFSSAGIIMTSLSQRNNKSASSYASSNSKCYNTADSCRKVHSTPSYLLTSSYTSEGVDYDCSLVSTKLKINDTNCVNNKHTTKSCLKTSVTTTIPTLEIKTARKSSSNTIGLHSYPTSSPNKSISSAPIIGYISSFKTIKTASPSYQTSDLTTITTITSLNNPGSTAVENTHESNDKSRKTSSNDISSKHSVIKETKDAVESSNKSHQTNTLKCSSIIIASSSHNSYESLGGTTLTLTLSKVYSPQNNDTLPFLEISEVNPSRTVLPESSKMMQYLTSTEERNKTARNTIATNIVSISTFHFEGEGNAIRMGYTQLLLMLIGIIVMNIGT
# Assays:
# Test in all cases: glycan array binding signal (z-score within array); higher = stronger binding
# Details in all cases: glycan notation: IUPAC condensed, linker removed; mutation: E227A
# [1] = target: Neu5Ac(a2-6)Gal(b1-4)GlcNAc(b1-2)Man(a1-3)[GlcNAc(b1-4)][Neu5Ac(a2-6)Gal(b1-4)GlcNAc(b1-2)Man(a1-6)]Man(b1-4)GlcNAc(b1-4)GlcNAc
# Procedure, shortened: (§1)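 Glycan array data came from 3228 arrays in the Consortium for Functional Glycomics database, and only arrays with an available protein sequence were kept. Glycan names were put into IUPAC-condensed notation, and columns mapping to the same glycan were averaged. The binding signal is a within-array Z-score, averaged across arrays of one protein sequence run at different concentrations or buffers and across linkers. A negative Z-score can be read as non-binding.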
# [2] = target: Neu5Ac(a2-6)Gal(b1-4)GlcNAc(b1-2)Man(a1-3)[Man(a1-6)]Man(b1-4)GlcNAc(b1-4)GlcNAc
# Procedure, shortened: as §1
# [3] = target: Neu5Ac(a2-6)Gal(b1-4)GlcNAc(b1-2)Man(a1-3)[Neu5Ac(a2-3)Gal(b1-4)GlcNAc(b1-2)Man(a1-6)]Man(b1-4)GlcNAc(b1-4)GlcNAc
# Procedure, shortened: as §1
# [4] = target: Neu5Ac(a2-6)Gal(b1-4)GlcNAc(b1-2)Man(a1-3)[Neu5Ac(a2-6)Gal(b1-4)GlcNAc(b1-2)Man(a1-6)]Man(b1-4)GlcNAc(b1-4)GlcNAc
# Procedure, shortened: as §1
# [5] = target: Neu5Ac(a2-6)Gal(b1-4)GlcNAc(b1-2)Man(a1-3)[Neu5Ac(a2-6)Gal(b1-4)GlcNAc(b1-2)Man(a1-6)]Man(b1-4)GlcNAc(b1-4)[Fuc(a1-6)]GlcNAc
# Procedure, shortened: as §1
# [6] = target: Neu5Ac(a2-6)Gal(b1-4)GlcNAc(b1-2)Man(a1-6)Man(b1-4)GlcNAc(b1-4)GlcNAc
# Procedure, shortened: as §1
# [7] = target: Neu5Ac(a2-6)Gal(b1-4)GlcNAc(b1-2)Man(a1-6)[Gal(b1-4)GlcNAc(b1-2)Man(a1-3)]Man(b1-4)GlcNAc(b1-4)GlcNAc
# Procedure, shortened: as §1
# [8] = target: Neu5Ac(a2-6)Gal(b1-4)GlcNAc(b1-2)Man(a1-6)[GlcNAc(b1-2)Man(a1-3)]Man(b1-4)GlcNAc(b1-4)GlcNAc
# Procedure, shortened: as §1
# [9] = target: Neu5Ac(a2-6)Gal(b1-4)GlcNAc(b1-2)Man(a1-6)[Man(a1-3)]Man(b1-4)GlcNAc(b1-4)GlcNAc
# Procedure, shortened: as §1
# [10] = target: Neu5Ac(a2-6)Gal(b1-4)GlcNAc(b1-2)[Neu5Ac(a2-6)Gal(b1-4)GlcNAc(b1-4)]Man(a1-3)[GlcNAc(b1-4)][Neu5Ac(a2-6)Gal(b1-4)GlcNAc(b1-2)[Neu5Ac(a2-6)Gal(b1-4)GlcNAc(b1-6)]Man(a1-6)]Man(b1-4)GlcNAc(b1-4)GlcNAc
# Procedure, shortened: as §1
# [11] = target: Neu5Ac(a2-6)Gal(b1-4)GlcNAc(b1-2)[Neu5Ac(a2-6)Gal(b1-4)GlcNAc(b1-4)]Man(a1-3)[GlcNAc(b1-4)][Neu5Ac(a2-6)Gal(b1-4)GlcNAc(b1-4)Man(a1-6)]Man(b1-4)GlcNAc(b1-4)GlcNAc
# Procedure, shortened: as §1
# [12] = target: Neu5Ac(a2-6)Gal(b1-4)GlcNAc(b1-2)[Neu5Ac(a2-6)Gal(b1-4)GlcNAc(b1-6)]Man(a1-6)[Neu5Ac(a2-6)Gal(b1-4)GlcNAc(b1-2)Man(a1-3)][GlcNAc(b1-4)]Man(b1-4)GlcNAc(b1-4)GlcNAc
# Procedure, shortened: as §1
# [13] = target: Neu5Ac(a2-6)Gal(b1-4)GlcNAc(b1-3)Gal(b1-3)GlcNAc
# Procedure, shortened: as §1
# [14] = target: Neu5Ac(a2-6)Gal(b1-4)GlcNAc(b1-3)Gal(b1-4)GlcNAc
# Procedure, shortened: as §1
# [15] = target: Neu5Ac(a2-6)Gal(b1-4)GlcNAc(b1-3)Gal(b1-4)GlcNAc(b1-2)Man(a1-3)[Neu5Ac(a2-6)Gal(b1-4)GlcNAc(b1-3)Gal(b1-4)GlcNAc(b1-2)Man(a1-6)]GalNAc
# Procedure, shortened: as §1
# [16] = target: Neu5Ac(a2-6)Gal(b1-4)GlcNAc(b1-3)Gal(b1-4)GlcNAc(b1-3)Gal(b1-4)GlcNAc
# Procedure, shortened: as §1
# [17] = target: Neu5Ac(a2-6)Gal(b1-4)GlcNAc(b1-3)Gal(b1-4)GlcNAc(b1-3)Gal(b1-4)GlcNAc(b1-2)Man(a1-3)[Neu5Ac(a2-6)Gal(b1-4)GlcNAc(b1-3)Gal(b1-4)GlcNAc(b1-3)Gal(b1-4)GlcNAc(b1-2)Man(a1-6)]GalNAc
# Procedure, shortened: as §1
# [18] = target: Neu5Ac(a2-6)Gal(b1-4)GlcNAc(b1-3)Gal(b1-4)GlcNAc(b1-3)GalNAc
# Procedure, shortened: as §1
# [19] = target: Neu5Ac(a2-6)Gal(b1-4)GlcNAc(b1-3)Gal(b1-4)GlcNAc(b1-3)[Neu5Ac(a2-6)Gal(b1-4)GlcNAc(b1-3)Gal(b1-4)GlcNAc(b1-6)]GalNAc
# Procedure, shortened: as §1
# [20] = target: Neu5Ac(a2-6)Gal(b1-4)GlcNAc(b1-3)Gal(b1-4)GlcNAc(b1-6)[Gal(b1-3)]GalNAc
# Procedure, shortened: as §1
# [21] = target: Neu5Ac(a2-6)Gal(b1-4)GlcNAc(b1-3)Gal(b1-4)[Fuc(a1-3)]GlcNAc(b1-3)Gal(b1-4)[Fuc(a1-3)]GlcNAc
# Procedure, shortened: as §1
# [22] = target: Neu5Ac(a2-6)Gal(b1-4)GlcNAc(b1-3)GalNAc
# Procedure, shortened: as §1
# [23] = target: Neu5Ac(a2-6)Gal(b1-4)GlcNAc(b1-3)[Neu5Ac(a2-6)Gal(b1-4)GlcNAc(b1-6)]GalNAc
# Procedure, shortened: as §1
# [24] = target: Neu5Ac(a2-6)Gal(b1-4)GlcNAc(b1-6)GalNAc
# Procedure, shortened: as §1
# [25] = target: Neu5Ac(a2-6)Gal(b1-4)GlcNAc(b1-6)[Gal(b1-3)GlcNAc(b1-3)]Gal(b1-4)Glc
# Procedure, shortened: as §1
# [26] = target: Neu5Ac(a2-6)Gal(b1-4)GlcNAc(b1-6)[Gal(b1-3)]GalNAc
# Procedure, shortened: as §1
# [27] = target: Neu5Ac(a2-6)Gal(b1-4)GlcNAc6S
# Procedure, shortened: as §1
# Neu5Ac(a2-6)GalNAc = target: Neu5Ac(a2-6)GalNAc
# Procedure, shortened: as §1
# [28] = target: Neu5Ac(a2-6)GalNAc(b1-4)GlcNAc
# Procedure, shortened: as §1
# [29] = target: Neu5Ac(a2-6)GalNAc(b1-4)GlcNAc6S
# Procedure, shortened: as §1
binder,measurement,setting,value
B1,glycan array binding signal (z-score),[1],-0.193
same,glycan array binding signal (z-score),[2],-0.176
same,glycan array binding signal (z-score),[3],-0.213
same,glycan array binding signal (z-score),[4],-0.199
same,glycan array binding signal (z-score),[5],-0.201
same,glycan array binding signal (z-score),[6],-0.212
same,glycan array binding signal (z-score),[7],-0.191
same,glycan array binding signal (z-score),[8],-0.166
same,glycan array binding signal (z-score),[9],-0.2
same,glycan array binding signal (z-score),[10],-0.174
same,glycan array binding signal (z-score),[11],-0.205
same,glycan array binding signal (z-score),[12],-0.204
same,glycan array binding signal (z-score),[13],-0.214
same,glycan array binding signal (z-score),[14],-0.202
same,glycan array binding signal (z-score),[15],-0.195
same,glycan array binding signal (z-score),[16],-0.198
same,glycan array binding signal (z-score),[17],-0.169
same,glycan array binding signal (z-score),[18],-0.207
same,glycan array binding signal (z-score),[19],-0.173
same,glycan array binding signal (z-score),[20],0.553
same,glycan array binding signal (z-score),[21],-0.205
same,glycan array binding signal (z-score),[22],-0.179
same,glycan array binding signal (z-score),[23],-0.189
same,glycan array binding signal (z-score),[24],-0.161
same,glycan array binding signal (z-score),[25],-0.078
same,glycan array binding signal (z-score),[26],0.772
same,glycan array binding signal (z-score),[27],0.032
same,glycan array binding signal (z-score),Neu5Ac(a2-6)GalNAc,-0.216
same,glycan array binding signal (z-score),[28],-0.222
same,glycan array binding signal (z-score),[29],-0.185
